Reference: PubChem BioAssay AID1347165 (National Center for Advancing Translational Sciences (NCATS), 2019)
In all, about 220,000 compounds went through this assay and about 5,700 (2.6%) were called active. The inconclusive results got no clear call from the source; some entries with a clear call stand among them for comparison. Calls come from the whole dose curve; as a rule, active = well fitted inhibition curve with a large enough effect; inconclusive = small, poorly fitted or top-dose-only effect; inactive = no such curve, though single readings can be large or run the other way. A potency beside an inconclusive call is a rough fit, not a confirmed value.

Target: Lysine-specific demethylase 5B (Homo sapiens) (UniProt Q9UGL1)
Assay: Primary screen for KDM5B Histone Demethylases FDH-coupled qHTS; note: nearly all actives have a fitted effect of over 70% in size
Conditions: FDH-coupled NADH fluorescence (FDH is formaldehyde dehydrogenase); series mostly up to 57.7 µM
How it was run: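 Here, H3K4me3 peptide (12.5 µM in substrate mix) is demethylated by KDM5BΔAP, 200 nM final, after 10 min compound exposure. Formaldehyde product is coupled through FDH (0.25 U/mL in mix) to NADH fluorescence; 30-min ΔRFU feeds dose-response curves.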
Potency is the fitted concentration of half-maximal effect; tags give direction and shape of the fitted curve.

Chain of UniProt Q9UGL1 (Q9UGL1 whole entry, looked up): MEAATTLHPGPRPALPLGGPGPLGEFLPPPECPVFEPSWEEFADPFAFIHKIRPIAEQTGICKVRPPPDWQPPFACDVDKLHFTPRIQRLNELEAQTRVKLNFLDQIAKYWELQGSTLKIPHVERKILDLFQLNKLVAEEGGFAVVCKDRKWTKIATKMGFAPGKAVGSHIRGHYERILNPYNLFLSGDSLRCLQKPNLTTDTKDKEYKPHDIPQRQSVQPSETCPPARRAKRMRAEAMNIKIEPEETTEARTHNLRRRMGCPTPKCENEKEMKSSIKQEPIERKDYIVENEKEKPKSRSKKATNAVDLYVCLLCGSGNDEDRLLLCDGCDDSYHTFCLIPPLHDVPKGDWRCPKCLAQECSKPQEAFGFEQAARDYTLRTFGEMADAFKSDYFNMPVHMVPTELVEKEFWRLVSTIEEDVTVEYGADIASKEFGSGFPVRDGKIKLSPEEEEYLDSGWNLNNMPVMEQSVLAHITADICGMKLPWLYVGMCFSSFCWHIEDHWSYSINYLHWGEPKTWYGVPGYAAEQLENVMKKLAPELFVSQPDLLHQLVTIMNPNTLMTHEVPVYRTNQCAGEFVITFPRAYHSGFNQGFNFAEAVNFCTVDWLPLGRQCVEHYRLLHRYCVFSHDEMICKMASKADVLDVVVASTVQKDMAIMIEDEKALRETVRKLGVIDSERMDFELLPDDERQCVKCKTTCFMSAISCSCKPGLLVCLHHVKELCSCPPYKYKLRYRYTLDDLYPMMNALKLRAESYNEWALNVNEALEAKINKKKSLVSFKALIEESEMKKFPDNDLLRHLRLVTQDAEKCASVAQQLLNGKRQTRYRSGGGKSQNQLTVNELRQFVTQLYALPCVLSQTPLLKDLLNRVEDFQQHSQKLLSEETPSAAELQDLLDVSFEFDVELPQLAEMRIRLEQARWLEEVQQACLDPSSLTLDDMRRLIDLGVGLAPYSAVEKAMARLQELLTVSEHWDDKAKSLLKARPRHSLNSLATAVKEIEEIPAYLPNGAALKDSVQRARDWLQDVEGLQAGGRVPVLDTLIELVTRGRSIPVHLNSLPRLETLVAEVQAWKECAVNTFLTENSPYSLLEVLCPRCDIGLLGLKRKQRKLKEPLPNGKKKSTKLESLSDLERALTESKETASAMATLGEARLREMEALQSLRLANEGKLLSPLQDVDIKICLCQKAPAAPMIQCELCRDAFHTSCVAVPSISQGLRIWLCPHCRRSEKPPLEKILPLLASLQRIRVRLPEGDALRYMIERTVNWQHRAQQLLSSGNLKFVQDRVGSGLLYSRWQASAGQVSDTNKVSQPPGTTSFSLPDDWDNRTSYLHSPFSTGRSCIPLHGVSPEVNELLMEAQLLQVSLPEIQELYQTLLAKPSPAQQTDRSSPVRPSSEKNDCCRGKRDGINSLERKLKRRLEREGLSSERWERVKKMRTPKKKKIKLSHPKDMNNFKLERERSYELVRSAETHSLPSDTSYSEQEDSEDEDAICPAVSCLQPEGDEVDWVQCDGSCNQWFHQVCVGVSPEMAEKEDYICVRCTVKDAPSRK

Compound | Potency
C=C(C)CN1CCN(c2nc3c(c(=O)[nH]c(=O)n3C)n2Cc2ccc(Cl)cc2)CC1 | inactive
CN(CCn1ccnc1)c1ccc(-c2nc(-c3cccc(Cl)c3)no2)cn1 | inconclusive: 31.6 µM [inhibitor, partial curve, poor fit]
Cc1ccsc1CN1CCC(C2CCN(S(C)(=O)=O)CC2)C1 (centres undefined) | inconclusive: 35.5 µM [inhibitor, single point]
Cn1cc(CN(C(=O)Nc2ccccc2)C2CCCCC2)c2ccccc21 | inconclusive: 39.8 µM [inhibitor, single point]
COc1ccccc1NC(=O)CSCc1ccc(Cl)c(Cl)c1 | inactive
O=C1NCCCCCN(C(=O)c2cnccn2)[C@H]2CCC[C@@H]12 | inactive
O=C(Nc1ccccc1N1CCCCCC1)c1cncc(Br)c1 | inactive
Cc1ccc(Nc2nc(-c3ccccc3)c(C(=O)Nc3cccnc3)s2)cc1C | inconclusive: 28.2 µM [inhibitor, partial curve, poor fit]
O=Cc1ccc(-c2ccc(I)cc2C(F)(F)F)o1 | inconclusive: 20 µM [inhibitor, single point]
Cc1ccc(NC(=O)COCC(=O)N(c2ccccc2)c2ccccc2)cc1 | inactive
COc1ccc(S(=O)(=O)NCCc2nnc3ccc(SCC(=O)Nc4ccccc4C)nn23)cc1 | inconclusive: 0.891 µM [inhibitor, partial curve, poor fit]
O=c1ccc2cc3c(-c4ccccc4)coc3cc2o1 | inconclusive: 39.8 µM [inhibitor, single point]
COC(=O)C1=C(C)N=C2SC=C(CC(=O)Nc3cc(C)cc(C)c3)N2C1c1ccccc1OC (centres undefined) | inconclusive: 8.91 µM [inhibitor, partial curve]
Cc1cc(C)c2c(=O)cc(C(=O)N(Cc3cccc(Cl)c3)C3CCS(=O)(=O)C3)oc2c1 (centres undefined) | inactive
O=C(Cc1ccccc1)N1CCC2(CC1)CN(Cc1ccccc1)CC2CO (centres undefined) | inconclusive: 39.8 µM [inhibitor, partial curve, poor fit]
Cc1cc(N)n(CC(=O)N2CCC(O)(CN3CCOCC3)C(C)(C)C2)n1 (centres undefined) | inconclusive: 12.6 µM [inhibitor, partial curve]
COc1cc(-c2onc(C)c2C(=O)NCCC(c2ccccc2)c2ccccc2)cc(OC)c1OC | active: 28.2 µM
COc1ccc2nc(C)c(C(=O)Oc3ccc(C4SCCS4)cc3OC)cc2c1 | inconclusive: 39.8 µM [inhibitor, single point]
O=C(c1ccccc1F)N1CCCCCC1c1nnc(-c2ccccc2)o1 (centres undefined) | inconclusive: 6.31 µM [inhibitor, single point]
